From publication PMC4336329 (PLoS ONE, 2015)
In all, about 310,000 compounds went through this assay and about 14,000 (4.5%) showed an effect of 50% or more. Effects have a minus sign here. Some of the results follow.

Each compound was assayed against human ether-à-go-go-related gene (hERG) potassium channel (human, UniProt Q12809) (assay: primary screen, population patch clamp on CHO cells stably expressing hERG).
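Also: peak tail current of the secondary pulse compared with the same well before compound.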

Sequence of human ether-à-go-go-related gene (hERG) potassium channel (Q12809 whole entry, looked up): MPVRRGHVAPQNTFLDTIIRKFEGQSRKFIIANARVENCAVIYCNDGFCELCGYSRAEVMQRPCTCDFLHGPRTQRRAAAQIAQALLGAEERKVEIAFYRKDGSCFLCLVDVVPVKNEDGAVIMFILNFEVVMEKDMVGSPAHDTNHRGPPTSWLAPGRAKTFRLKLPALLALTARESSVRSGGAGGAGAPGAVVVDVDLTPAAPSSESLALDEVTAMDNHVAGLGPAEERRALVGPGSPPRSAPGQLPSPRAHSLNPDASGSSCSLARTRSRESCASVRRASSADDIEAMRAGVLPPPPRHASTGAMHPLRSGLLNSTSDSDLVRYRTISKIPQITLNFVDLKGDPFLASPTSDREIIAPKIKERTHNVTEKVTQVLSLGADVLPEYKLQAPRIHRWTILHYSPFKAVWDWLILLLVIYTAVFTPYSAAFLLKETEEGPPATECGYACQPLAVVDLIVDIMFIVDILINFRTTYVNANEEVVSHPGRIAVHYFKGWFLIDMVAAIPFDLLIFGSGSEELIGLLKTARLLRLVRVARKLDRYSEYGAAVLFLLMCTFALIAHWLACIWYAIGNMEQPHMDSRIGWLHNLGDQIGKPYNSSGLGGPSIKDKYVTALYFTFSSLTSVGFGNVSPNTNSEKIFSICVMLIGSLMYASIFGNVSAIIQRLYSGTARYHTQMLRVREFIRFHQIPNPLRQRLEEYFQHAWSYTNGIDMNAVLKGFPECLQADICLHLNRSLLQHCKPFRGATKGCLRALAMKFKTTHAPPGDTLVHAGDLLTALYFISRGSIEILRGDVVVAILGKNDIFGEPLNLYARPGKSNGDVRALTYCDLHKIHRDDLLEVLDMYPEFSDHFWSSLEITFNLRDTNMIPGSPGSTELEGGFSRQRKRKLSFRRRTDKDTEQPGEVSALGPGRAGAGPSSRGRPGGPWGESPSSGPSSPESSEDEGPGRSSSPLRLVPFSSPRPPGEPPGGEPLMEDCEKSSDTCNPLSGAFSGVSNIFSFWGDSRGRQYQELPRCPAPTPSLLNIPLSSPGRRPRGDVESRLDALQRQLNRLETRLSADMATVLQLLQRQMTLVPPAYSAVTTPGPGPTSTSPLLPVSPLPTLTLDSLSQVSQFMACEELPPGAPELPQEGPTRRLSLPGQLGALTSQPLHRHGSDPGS

Compound | hERG current change (%, negative = inhibition) at 10uM [%]
CCc1ccc2[nH]c(=O)c(Cc3ccccc3)c(O)c2c1 | -3.05
COC(=O)c1ccc(NC(=O)c2cccc(N3C(=O)C4C5C=CC(C6CC56)C4C3=O)c2)cc1 (centres unmarked) | 6.62
OCCNc1nc(C2CC2)nc2c1nnn2Cc1ccccc1Cl | -0.392
Cc1cc(C(=O)N/N=C/c2cccc(Cl)c2Cl)no1 | -2.72
COc1ccc(OC)c(S(=O)(=O)N(C)CC(=O)Nc2cc(Cl)ccc2OC)c1 | -27.2
COc1ccccc1CNC(=O)CCc1c(C)nc2cc(-c3ccccc3OC)nn2c1C | -11.5
CN(C)CCCn1c(SCC(=O)Nc2nccs2)nnc1-c1ccncc1 | 24.2
Cl.c1ccc(OCCN2C3=NCCN3c3ccccc32)cc1 | -73.3
Cc1onc(-c2ccccc2)c1C(=O)N/N=C/c1ccco1 | 7.72
CCCCS(=O)(=O)/C=C\C=C/S(=O)(=O)CCCC | -23.9
Cc1onc(-c2ccccc2)c1C(=O)NC(=S)NNC(=O)c1ccco1 | 15.9
Cc1sc2ncn(Cc3ccccc3F)c(=O)c2c1C | -35.8
CC(=O)Oc1ccc2oc(-c3ccccc3)c(C(N)=O)c2c1 | -14.1
O=C(C1CCCN(S(=O)(=O)c2cccnc2)C1)N1CCn2c1nc1ccccc12 (centres unmarked) | -15.3
C=Cn1ccnc1P(=S)(c1ccc2c(c1)c1ccccc1n2CC)c1nccn1C=C | -5.65
Cc1ccc(Oc2ccc(NC(=O)C3=CC=CN4CCS(=O)(=O)N=C34)cc2)cc1 | -7.39
Cc1ccc(NC(=O)Nc2cccnc2)cc1 | -15
COc1ccccc1OCc1nnc(SCC(=O)Nc2ccc(C)cc2)n1C | -10.7
COCCN(C(=O)CSc1nc2ccccc2c(=O)n1CC(C)C)c1c(N)n(Cc2ccccc2)c(=O)[nH]c1=O | -32
CCOc1ccccc1C(=O)Nc1c[nH]c(=O)[nH]c1=O | 15
CS(=O)(=O)c1ccc([C@@H](O)[C@@H](CF)NC(=O)C(Cl)Cl)cc1 | -5.39
C/C(=N\NC(=O)c1cc(-c2cccnc2)nc2ccccc12)c1ccccc1O | 0.355
COC(=O)c1ccc(CSc2nc3sc(C)c(C)c3c(=O)[nH]2)cc1 | 0.764

Compound | hERG current change (%, negative = inhibition) at 10uM [%]
CCN(CC)C(=O)C1CCCN(c2ncnc3c2cnn3-c2ccc(Cl)cc2)C1 (centres unmarked) | -38.5
COc1ccc(NS(=O)(=O)c2cccs2)cn1 | -0.608
COc1ccc(C)cc1NC(=O)CN1CCN(c2ccc(F)cc2)CC1 | -50.4
CCC(C)[C@H](NC(=O)NCCC1=CCCCC1)C(=O)OC (some centres unmarked) | -2.24
CCc1cc(=O)oc2cc(C)cc(OC(C)C(=O)O)c12 (centres unmarked) | -2.21
COc1cc2c(cc1OC)CN(C(=S)Nc1ccccc1Cl)CC2 | 8.88
O=C(OCC(=O)N1CCN(C(=O)c2ccco2)CC1)c1ccccc1C(=O)c1ccccc1 | -34
CNc1nc(C23CC4CC(CC(C4)C2)C3)cs1 | 33.1
Cc1ccc(/C=N/NC(=O)Cn2ccc(C(F)(F)F)n2)o1 | 12.8
COC(=O)c1cccc(NC(=S)NCc2ccc(F)cc2)c1 | -3.94
Cc1sc2ncnc(-n3cnc4ccccc43)c2c1C | 2.29
O=S(=O)(Nc1ccc(S(=O)(=O)Nc2ccccc2)cc1)c1ccccc1 | -25
COc1cccc(C(=O)N2CCN(C(=O)c3cccc4ccccc34)CC2)c1OC | -2.48
COc1cccc(NC(=O)CN(C)C(=O)CNC(=O)c2ccccc2F)c1 | 16.4
CCC(CO)Oc1cc(NC(=O)c2ccc(C)cc2)c2ncn(C(C)C)c2c1 (centres unmarked) | -3.36
Cc1cc(C)n(C(=O)c2ccc(C)c(Br)c2)n1 | 27.7
Cc1cc(Cl)ccc1OC(C)C(=O)NC(C)C1CCCO1 (centres unmarked) | -6.42
COC(=O)c1ccc(N2OC3(C)C=CC2CC3)cc1 (centres unmarked) | 10.9
CC(C)CCCN1C(N(C)C)=NC[C@@H]1Cc1ccccc1 | -24.9
Nc1nc(N2CCN(c3ccccc3)CC2)n[nH]1 | 4.2
Fc1ccc(CNCCc2ccc3c(c2)OCO3)cc1 | -3.52
O=S(=O)(c1ccc(F)cc1)N1CCC(O)(c2ccc3c(c2)OCO3)CC1 | -42
CC(C)=C1SC(N2CCOCC2)=NC1=O | 14

Compound | hERG current change (%, negative = inhibition) at 10uM [%]
O=C(C[n+]1ccc(C(=O)NCc2ccccc2)cc1)c1ccc(OC(F)F)cc1.[Br-] | -92.8
COc1ccc(NC(=O)C2CCCN(S(=O)(=O)c3cccnc3)C2)cc1OC (centres unmarked) | 16.2
Cc1ccc(C(=O)Nc2cccc(NC(=O)c3ccc(C)cc3)n2)cc1 | 2.01
CCCCCn1c(=O)[nH]c2cc(C(=O)NCCCN3CCCCC3CC)ccc2c1=O (centres unmarked) | -40
COCCN1C(=O)N[C@@H](c2ccccc2)C(C(C)=O)=C1C | 19.7
O=C(c1ccc(S(=O)(=O)N2CCCCCC2)cc1)N1CCN(Cc2ccccc2)CC1 | -19.5
Cc1ccccc1Nc1c(-c2cccnc2)nc2ccccn12 | -24.7
Cc1ccc(OCCC(=O)OCC(=O)Nc2ccc(N3CCOCC3)cc2)cc1 | 14
O=C(NN1CCOCC1)c1ccc(Br)cc1 | 7.01
O=C(c1ccc([N+](=O)[O-])s1)N1CCCc2ccccc21 | -4.43
Cc1ccc([N+](=O)[O-])cc1NC(=O)c1ccccc1 | -27.3
COc1cc2[nH]c(C(=O)N3CCN(c4ccc(F)cc4)CC3)cc2c(OC)c1OC | 17.9
COc1cccc(CNC(=O)c2ccccc2NC(=O)C2=C(C)OCCS2)c1OC | 2.51
CS(=O)(=O)N1N=C(c2ccco2)CC1c1cccc([N+](=O)[O-])c1 (centres unmarked) | -6.06
CCN1C(=O)c2ccc(C(=O)Nc3ncc(C)s3)cc2C1=O | 6.29
CSc1nc2ccc(NS(=O)(=O)c3ccc(Cl)s3)cc2s1 | -2.78
CC(=O)C1=C(O)C(=O)N(Cc2ccccc2)C1c1ccc(F)cc1 (centres unmarked) | 22.2
COc1cc(NCc2ccccc2)c2ncn(C(C)C)c2c1 | -11.4
Cc1ccc(-c2cc(C(=O)NCCCN3CCOCC3)c3ccccc3n2)cc1C | 0.698
CCC(C)N=CC1=C(O)CC(c2ccccc2)CC1=O (centres unmarked) | -4.11
CCOC(=O)c1nn(-c2cc(C(=O)OC)cc(C(=O)OC)c2)cc1O | -3.29
Br.CC(C)(C)c1ccc(-c2csc(NNC3=NCCCCC3)n2)cc1 | 4.02
Cc1ccc(CSc2ccc(S(=O)(=O)N3CCCC3)cn2)cc1 | -4.27

Compound | hERG current change (%, negative = inhibition) at 10uM [%]
Cc1nn(C(=O)Cn2ccc([N+](=O)[O-])n2)c(C)c1Br | -3.85
O=C(CSc1nc2ccccc2c(=O)n1CCCN1CCOCC1)NC12CC3CC(CC(C3)C1)C2 | -67.8
CC(Oc1ccc(-c2ccccc2)c(F)c1)c1ccn(S(=O)(=O)c2ccc(Br)cc2)n1 (centres unmarked) | 7.43
COC(CNC(=O)c1ccc2c3c(onc13)-c1ccccc1C2=O)OC | -1.15
CCCCOC(=O)C1=C(C)NC(=O)NC1c1ccc(N(C)C)cc1 (centres unmarked) | 21.7
Cc1cc(C)cc(N/C(N)=N/c2nc(C)cc(C)n2)c1 | -50
Cc1nc2scc(C)n2c(=O)c1S(=O)(=O)Nc1ccc(N2CCN(C(=O)C(C)C)CC2)cc1 | -0.736
O=S(=O)(/N=C(/Nc1ccccn1)c1ccc(Cl)cc1)c1ccc(Cl)cc1 | -13.3
Cc1ccc(-n2c(-c3ccncc3)n[nH]c2=S)c(C)c1 | 13.7
Cc1oc(-c2cccc(Cl)c2)[n+]([O-])c1C.Cl | 6.8
N/C(=N\NC(=O)c1cccc(F)c1)c1cc2ccccc2oc1=O | -3.1
Cc1ccsc1CN(C)C(=O)CCc1nnc(COc2ccccc2)o1 | -25.7
O=C(CCNc1ccccc1)c1cccc([N+](=O)[O-])c1 | -31.5
COc1ccc(-c2c(-c3ccsc3)oc(=O)c3cc(OC)c(OC)cc23)cc1 | 6.24
COc1cccc(/C(=N/O)C2CC2c2ccc(Cl)cc2)c1 (centres unmarked) | 10.4
O=C(CN1CCN(c2ccccc2O)CC1)Nc1ccc2c(c1)CCC2 | -35.1
COc1ccc(N(CC(=O)Nc2ccc(C)cc2C)S(=O)(=O)c2c(C)n[nH]c2C)cc1 | -4.4
CC(C)c1ccc(OCc2ccc(C(=O)N3CCN(c4ccccn4)CC3)cc2)cc1 | -42.6
O=S(=O)(c1cccc2ccccc12)n1nnc2ccccc21 | 15.6
Cc1cccc(-c2n[nH]c(=S)n2-c2ccccc2)c1[N+](=O)[O-] | 14
